Data reported in PubChem BioAssay AID624296 (National Center for Advancing Translational Sciences (NCATS), 2012).
Out of some 350,000 compounds screened, about 9,900 (2.8%) were called active. Inconclusive means that the source gave no clear call. Such entries were picked first, then a sample of the others. Calls come from the whole dose curve; as a rule, active = well fitted activation curve with a large enough effect; inconclusive = small, poorly fitted or top-dose-only effect; inactive = no such curve, though single readings can be large or run the other way. Potencies of inconclusive entries are left out as doubtful fits.

experiment: A quantitative high throughput screen for small molecules that induce DNA re-replication in MCF 10a normal breast cells.; note: nearly all actives have a fitted effect of over 50% in size; for activity, positive = re-replication: % of control where 0% means no effect; details: MCF 10A DNA re-replication, Hoechst nuclear intensity, 48 h; activity, positive = re-replication: at 46.1 µM (top of the series)
Potency is the fitted concentration of half-maximal effect; tags give direction and shape of the fitted curve.

Row | Compound | Potency | activity, positive = re-replication
1 | COCCOC(=O)C1=C(C)NC(SCC(=O)NC(C)(C)C)=C(C#N)C1c1ccco1 (centres undefined) | inconclusive [activator, partial curve, poor fit] | –
2 | Cc1nnc(N(C)C(=O)c2ccncc2)s1 | inconclusive [activator, partial curve, poor fit] | –
3 | CCCNc1nc(-c2ccccc2)c(C(=O)OCC)cc1C#N | active: 11.6 µM | –
4 | CCCCOc1ccc(C(C)NC(=O)CCS(=O)(=O)Cc2ccccc2Cl)cc1 (centres undefined) | inconclusive [activator, single point] | –
5 | COCCCNC(=O)C1=CCN(S(=O)(=O)c2ccc(OC)cc2)CC1 | – | inactive: 4.6%
6 | C(=C\c1ccccc1)/C=N/N1CCN(Cc2ccccc2)CC1 | inconclusive [activator, full curve, poor fit] | –
7 | CCCCN(C)CCNC(=O)c1cc2c(-c3ccccc3F)nn(C)c2s1 | – | inactive: 4.71%
8 | CCc1ccc(C(=O)CN2C(=O)NC3(CCOc4ccccc43)C2=O)s1 (centres undefined) | inconclusive [activator, partial curve, poor fit] | –
9 | CC(=O)Nc1ccc(S(=O)(=O)N2c3ccccc3C(C)=CC2(C)C)cc1 | inconclusive [activator, partial curve, poor fit] | –
10 | Fc1ccccc1CNc1nc(-c2cccnc2)nc2ccccc12 | inconclusive [activator, single point] | –
11 | CN1CCC(N(C)S(=O)(=O)c2ccc(NC(=O)COc3ccc(Br)cc3Cl)cc2)CC1 | inconclusive [activator, single point] | –
12 | CCc1cc(C(=O)N2CCCC(C(=O)c3ccc(C(F)(F)F)cc3)C2)n(C)n1 (centres undefined) | inconclusive [activator, partial curve, poor fit] | –
13 | C[C@H](N[C@@H](C)COc1ccccc1)[C@H](O)c1ccc(O)cc1 | – | inactive: 0.313% [at 20.6 µM]
14 | O=C(NCc1cccs1)C1CCCN1C(=O)Nc1ccc(F)cc1 (centres undefined) | – | inactive: -7.08%
15 | COc1cccc(N2C(=O)Nc3ccc(Br)cc3C2(O)C(=O)NCCCN(C)C)c1 (centres undefined) | – | inactive: -1.34%
16 | CC(C)(C)n1nc2c(c1NC(=O)c1ccc(Br)cc1)CS(=O)C2 (centres undefined) | – | inactive: 5.77%
17 | O=C(CSC1=NCCS1)Nc1cccc(F)c1 | inconclusive [activator, single point] | –
18 | Cc1cc(C(C)(C)C)oc1C(=O)N(CC(=O)NC1CCCC1)c1cccc(C(F)(F)F)c1 | inconclusive [activator, partial curve, poor fit] | –
19 | NNC(=O)c1ccc(COc2ccc3c(c2)CCC3)cc1 | inconclusive [activator, full curve, poor fit] | –
20 | Clc1ccc(CCNc2ncnc3c2nnn3Cc2ccccc2)cc1 | inconclusive [activator, partial curve, poor fit] | –
21 | O=C(CN(CC(=O)N1CCOCC1)S(=O)(=O)c1ccc(Br)s1)N1CCOCC1 | – | inactive: -1.51%
22 | O=C(COC(=O)c1ccc([N+](=O)[O-])o1)Nc1nc2ccccc2s1 | – | inactive: -4.14%
23 | Cc1cc(N2C(=O)C(O)=C(C(=O)c3cc4ccccc4o3)C2c2ccc([N+](=O)[O-])cc2)no1 (centres undefined) | – | inactive: 1.28%

Row | Compound | Potency | activity, positive = re-replication
24 | COc1ccc(OC)c(NC(=O)Cc2csc(NC(=O)Nc3ccccc3OC)n2)c1 | inconclusive [activator, single point] | –
25 | Cc1ccc2c(C)c(C(=O)N3CCC(O)(c4ccccc4)CC3)oc2c1C | inconclusive [activator, single point] | –
26 | Cn1c2ccccc2c2cc(/C=N/NC(=O)c3ccccc3F)ccc21 | inconclusive [activator, partial curve, poor fit] | –
27 | COc1ccc(N=C2SC(CC(=O)Nc3ccc(F)cc3)C(=O)N2Cc2ccco2)cc1 (centres undefined) | inconclusive [activator, single point] | –
28 | O=C(O)CC1(CC(=O)NCc2ccncc2)CCCCC1 | – | inactive: -2.89%
29 | Cc1ccc(SC[C@H](C)CN2CC[C@H](C)CCC2=O)cc1 | inconclusive [activator, single point] | –
30 | COc1ccccc1NC(=O)c1cc2cc(Br)ccc2oc1=N | inconclusive [activator, single point] | –
31 | COC(=O)c1ccc(Oc2nc(Nc3ccc(C)c(C)c3)nc(N(C)C)n2)cc1 | – | inactive: 2.58%
32 | CCc1nn(C(CC)C(=O)NCc2cccc(OC)c2)c(=O)c2cc3occc3n12 (centres undefined) | inconclusive [activator, partial curve, poor fit] | –
33 | COCCCC1CCN(C(=O)c2cc(COc3cc(C)ccc3C)on2)CC1 | inconclusive [activator, partial curve, poor fit] | –
34 | CO/N=C/C(C#N)=C/c1cc(C(=O)c2ccccc2)cn1C | – | inactive: 15.3%
35 | COc1cccc(/C=C2\SC(=S)N(CCCC(=O)N(CCO)c3ccccc3)C2=O)c1 | inconclusive [activator, single point] | –
36 | Nc1nc(NCCO)nc(N2CCCCCC2)c1[N+](=O)[O-] | – | inactive: 6.23%
37 | CC(OC(=O)C1=Cc2ccccc2OC1)C(=O)NCC1CCCO1 (centres undefined) | active: 20.6 µM | –
38 | COc1ccccc1Oc1ccc2c(c1)C(=O)N(CC(=O)O)C2=O | inconclusive [activator, single point] | –
39 | CCc1nnc(NC(=O)CSc2nc(N)c(NC(=O)c3ccc(OC)cc3)c(=O)[nH]2)s1 | – | inactive: 7.09%
40 | COc1ccc(C2=CC(c3sccc3C)n3nnnc3N2)cc1 (centres undefined) | inconclusive [activator, single point] | –
41 | O=[n+]1c2c(n([O-])c3cc(F)c(F)cc31)CCCC2 | inconclusive [activator, partial curve, poor fit] | –
42 | COc1ccccc1NCC(=O)N/N=C(\C)c1cccs1 | – | inactive: 0.407%
43 | Cc1cc(OCC(=O)NC(Cc2ccc(Cl)cc2)C(=O)O)c2c(C)c(C)c(=O)oc2c1 (centres undefined) | inconclusive [activator, full curve, poor fit] | –
44 | Cc1cc(Cl)ccc1OCC(=O)NNC(=O)C1CCN(c2ncnc3sc(C)c(C)c23)CC1 | inconclusive [activator, single point] | –
45 | O=C(c1ccc(-c2ccccc2Cl)o1)N1CCCCCCC1 | inconclusive [activator, partial curve, poor fit] | –
46 | CCCSS/C(CCO)=C(/C)N(C=O)Cc1cnc(C)nc1N | active: 13.3 µM | –

Row | Compound | Potency | activity, positive = re-replication
47 | Cc1[nH]n(-c2ccccc2)c(=O)c1/C=N\NC(=O)C1COc2ccccc2O1 (centres undefined) | inconclusive [activator, single point] | –
48 | O=C(c1ccc(Cl)c(Cl)c1)N1CCC(=O)N(C(COCc2cccc(Cl)c2)Cc2ccccc2)CC1 (centres undefined) | active: 23.1 µM | –
49 | CCOC(=O)CCC(NC(=O)c1ccc(CNc2nc3cc(C(F)(F)F)ccc3nc2C(=O)OCC)cc1)C(=O)OCC (centres undefined) | inconclusive [activator, partial curve, poor fit] | –
50 | COc1ccc(OC)c(CNC(=O)CCSCc2ccc(F)cc2Cl)c1 | inconclusive [activator, single point] | –
51 | CCOC(=O)c1ccc(NCC(O)COc2ccccc2)cc1 (centres undefined) | inconclusive [activator, partial curve, poor fit] | –
52 | CN(Cc1ccc(F)cc1)C(=O)c1cccc(S(=O)(=O)N2CCN(c3ccccc3)CC2)c1 | – | inactive: 7.41%
53 | O=C(NC(=S)Nc1ccc(N2CCOCC2)cc1)c1ccco1 | – | inactive: 13.7%
54 | CCN1CCN(C(c2ccc(F)cc2)c2nnnn2Cc2cccs2)CC1 (centres undefined) | active: 23.1 µM | –
55 | COc1ccccc1-c1c(C#N)c(N)nc2c1CCC2 | inconclusive [activator, single point] | –
56 | COc1ccccc1NC(=O)C1=C(C)Nc2nnnn2C1c1ccccn1 (centres undefined) | inconclusive [activator, single point] | –
57 | CCN1/C(=C(\O)c2ccccc2)C(=O)c2ccccc2S1(=O)=O | inconclusive [activator, single point] | –
58 | O=C(CSc1cc(Cl)ccc1Cl)Nc1ccc(N2CCOCC2)cc1 | inconclusive [activator, single point] | –
59 | Cc1cc(N2CCN(C)CC2)ccc1NC(=O)c1ccc(-c2ccc(Cl)cc2)o1 | active: 1.16 µM | –
60 | CC(C)(O)c1[nH]c2ccc(C(F)(F)F)cc2c1C(C)(C)O | inconclusive [activator, partial curve] | –
61 | Cc1nc2c(C(=O)NCCC(C)C)c[nH]n2c(=O)c1Cc1ccccc1F | inconclusive [activator, single point] | –
62 | COc1ccc(OCC(O)CNS(=O)(=O)c2cccs2)cc1 (centres undefined) | – | inactive: 1.2%
63 | CC(=O)Nc1ccc(N=Nc2ccc(O)cc2)cc1 | inconclusive [activator, partial curve, poor fit] | –
64 | CCOC(=O)c1ccc(OCc2nc(-c3cccs3)no2)cc1 | inconclusive [activator, partial curve] | –
65 | O=C(COC(=O)CC1CC2CCC1C2)NCc1ccc(Cl)cc1 (centres undefined) | – | inactive: -4.63%
66 | O=C(NCC(=O)N1CCN(Cc2c(F)cccc2Cl)CC1)c1cccc(Cl)c1 | inconclusive [activator, single point] | –
67 | CC(C)C(=O)NC(Nc1cccc2cccnc12)C(Cl)(Cl)Cl (centres undefined) | – | inactive: 1.67%
68 | O=C(COC(=O)CCc1ccccc1)Nc1ccc(F)cc1Cl | – | inactive: 4.63%
69 | O=C(Nc1ccc(Oc2ccccc2)nc1)C1CCCCN1Cc1cccc(O)c1 (centres undefined) | inconclusive [activator, partial curve, poor fit] | –
